# Measurements reported in the supplement of paper PMC8728848.
# Many of the other results were omitted from the sample, so the strongest signals are more common in it than they were.
# Columns and labels:
# Assay in all cases: glycan array binding signal (z-score within array); higher = stronger binding
# Conditions in all cases: glycan notation: IUPAC condensed, linker removed
# [1] = tested on: Neu5Ac(a2-3)Gal(b1-3)GlcNAc(b1-3)Gal(b1-4)GlcNAc
# Procedure, shortened: (§1)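 Arrays were curated from the Consortium for Functional Glycomics database, 3228 in total, and kept only where the protein sequence was available. Binding is expressed as a within-array Z-score. This score was averaged across arrays of the same protein sequence at different concentrations or buffers and across linkers, and negative values can be read as non-binding.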
# [2] = tested on: Neu5Ac(a2-3)Gal(b1-3)[Fuc(a1-4)]GlcNAc
# Procedure, shortened: as §1
# [3] = tested on: Neu5Ac(a2-3)Gal(b1-3)[Neu5Ac(a2-6)]GalNAc
# Procedure, shortened: as §1
# [4] = tested on: Neu5Ac(a2-3)Gal(b1-3)[Fuc(a1-4)]GlcNAc(b1-3)Gal(b1-4)[Fuc(a1-3)]GlcNAc
# Procedure, shortened: as §1
# [5] = tested on: Neu5Ac(a2-3)Gal(b1-3)GlcNAc(b1-3)GalNAc
# Procedure, shortened: as §1
# [6] = tested on: Neu5Ac(a2-3)Gal(b1-3)GlcNAc6S
# Procedure, shortened: as §1
# [7] = tested on: Neu5Ac(a2-3)Gal(b1-3)[Neu5Ac(a2-3)Gal(b1-4)]GlcNAc
# Procedure, shortened: as §1
# [8] = tested on: Neu5Ac(a2-3)Gal(b1-3)[Neu5Ac(a2-6)]GlcNAc(b1-3)[Fuc(a1-3)[Gal(b1-4)]GlcNAc(b1-6)]Gal(b1-4)Glc
# Procedure, shortened: as §1
substance,measurement,setting,value
M-Ficolin A256V (Homo sapiens) (chain not printed),glycan array binding signal (z-score),[1],-0.149
same,glycan array binding signal (z-score),[2],-0.176
same,glycan array binding signal (z-score),[3],-0.136
Angiogenin (Homo sapiens) (chain not printed),glycan array binding signal (z-score),[1],-1.54
same,glycan array binding signal (z-score),[4],-0.178
same,glycan array binding signal (z-score),[2],-1.28
FGF2 (chain not printed),glycan array binding signal (z-score),[5],0.022
M-Ficolin G221F (Homo sapiens) (chain not printed),glycan array binding signal (z-score),[5],-0.159
Gal 8 long (Homo sapiens) (chain not printed),glycan array binding signal (z-score),[6],4.87
M-Ficolin Y271F (Homo sapiens) (chain not printed),glycan array binding signal (z-score),[6],2.94
STIM-3 (Mus musculus) (chain not printed),glycan array binding signal (z-score),[4],4.34
NCAM1 (Homo sapiens) (chain not printed),glycan array binding signal (z-score),[7],-0.513
Thrombomodulin Extracellular (Homo sapiens) (chain not printed),glycan array binding signal (z-score),[8],-0.554
